By % Inhibition is commonly meant the relative decrease from the control value, in per cent.

Screen size: about 150,000 compounds; about 540 (0.36%) showed an effect of 50% or more. The list shows a part of the results.

Results on 42 molecules are retold here after ChEMBL document CHEMBL4888484, “Replenishing the malaria drug discovery pipeline: Screening and hit evaluation of the MMV Hit Generation Library 1 (HGL1) against asexual blood stage Plasmodium falciparum ,using a nano luciferase reporter read-out” (2022).

For the test, the system named is Plasmodium falciparum. Kind of test: Primary screen in NF54 nanoGlo assay, in single point, at 2uM, 72h; a lower Z score goes with more inhibition. Conditions: timepoint 72 hour. Format: functional, Erythrocyte.
Turning to `NC(=O)[C@H]1CCN(Cc2c(-c3ccccc3)nc3sccn23)C1`, the “% Inhibition” value is recorded as -6% and the Z score is 1.18.
Consider `CCOC(=O)c1nnc(-c2ccccc2)nc1C(=O)OCC`, for which the “% Inhibition” value is reported as -8% and the Z score came to 1.17.
As to `C[C@@](CO)(NCc1ncc[nH]1)C1CCCCC1`, the “% Inhibition” value is -9% and the Z score was found to be 1.3.
Turning to `CC(C)c1cc(C(=O)N[C@@H](C)c2nnnn2C)n[nH]1`, the “% Inhibition” value turned out to be 9% and the Z score is -1.47.
On to `CN(C)C(=O)c1ccc(CN[C@H]2CCc3ccccc3OC2)[nH]1`, for which the “% Inhibition” value is listed as -3% and the Z score came to 0.33.
As for `CCc1c(C(=O)Nc2cnccc2OC)nnn1-c1ccc(OC(C)C)cc1`, the “% Inhibition” value came out at 3% and the Z score is -0.54.
`Cc1ccc2c(c1)[C@@H](NC(=O)C1COC(CCC(=O)O)C1)[C@H](C)C2` (some centres undefined): the “% Inhibition” value was -8% and the Z score worked out at 1.3.
Turning to `c1ncc(CNCc2cncs2)s1`, the “% Inhibition” value is on record as -6% and the Z score worked out at 0.92.
Regarding `Cc1cc(=O)n(CC(=O)Nc2ccc3c(c2)OCCO3)c(N2CCOCC2)n1`, the “% Inhibition” value is recorded as -17% and the Z score worked out at 1.84.
Take `CCc1nc(O)c(C(=O)N2CCOc3cc(F)c(F)cc32)cc1C`: the “% Inhibition” value is -5% and the Z score was found to be 0.67.
`CCCCC(=O)N1CCc2[nH]nc(C(=O)NCCc3ccccc3)c2C1`: the “% Inhibition” value is -6% and the Z score was determined as 1.07.
With `O=C1CC[C@@]2(CCCN(c3ncnc4[nH]cnc34)C2)CN1CCc1c[nH]cn1`, the “% Inhibition” value is recorded as -24% and the Z score turned out to be 2.53.
With `Cc1noc(CC(=O)N2CCOCC2)n1`, the “% Inhibition” value is -29% and the Z score was 3.38.
For `CCc1cc(-c2nc(C[C@@]3(C)CC3(Cl)Cl)no2)n[nH]1`, the “% Inhibition” value is -3% and the Z score is 0.38.
`CCN(CC)c1ncnc2sc(C(=O)Nc3cccc(C(F)(F)F)c3)c(C)c12`: the “% Inhibition” value is 2% and the Z score was -0.35.
For the molecule `Cc1ccc(C(=O)NS(=O)(=O)c2cc(S(=O)(=O)N(C)C)ccc2Cl)o1`, the “% Inhibition” value is listed as -16% and the Z score is given as 2.45.
Consider `CCCn1ncc(C(=O)N2CCC23COC3)c1C1CC1`, for which the “% Inhibition” value is -2% and the Z score was 0.28.
The corresponding values for `CO[C@@]12CC[C@@H](O)C[C@@H]1N(Cc1cc(Cn3cncn3)c(C)cc1C)CC2` are 1% and -0.09.
As for `O=C(N[C@H]1CCOC[C@@H]1OCC1CCC1)c1ccc(Cl)cc1F`, the “% Inhibition” value was -5% and the Z score is reported as 0.58.
Consider `Cc1ncsc1C(=O)NCCOc1ccc(Cl)cn1`, for which the “% Inhibition” value is given as -9% and the Z score was 1.04.
For `Nc1cc(N2CCO[C@H](c3ccccc3)C2)c(Cl)cn1` the same measures were -4% and 0.83.
For `CC(C)(C)NC(=O)CNc1nnc(C2CC2)s1`, the “% Inhibition” value is given as 30% and the Z score is given as -4.33.
As for `COc1ccc(CCNC(=O)CN(c2ccc(OCc3ccccc3)cc2)S(C)(=O)=O)cc1`, the “% Inhibition” value is -5% and the Z score turned out to be 0.7.
`CCC(COC)NC(c1nc(C)no1)C(C)C` (centres undefined): the “% Inhibition” value is -6% and the Z score was 0.73.
The corresponding values for `COC[C@H](C)NCc1cccc(C)c1C` are -8% and 0.68.
The corresponding values for `Cn1ccnc(N2CCN(C(=O)Cc3c[nH]c4ccccc34)CC2)c1=O` are 3% and -0.49.
In the case of `C[C@]1(O)CCN(C(=O)c2cncc(Cl)c2)C[C@@H]1O`, the “% Inhibition” value was -26% and the Z score is 2.76.
For `CCCNC(=O)OC[C@H]1CCCCN1Cc1cncc(F)c1`, the “% Inhibition” value turned out to be 4% and the Z score is -0.56.
On to `CCCc1noc(CN(CCC)CC(=O)OC)n1`, for which the “% Inhibition” value was -9% and the Z score came to 1.45.
Consider `CNC(=O)[C@@]12CCOC[C@@H]1CN(C(=O)N[C@@H](C)c1cccc(O)c1)C2`, for which the “% Inhibition” value is recorded as -7% and the Z score worked out at 0.96.
`CC1CCN(CCCNCc2cc3ccccc3o2)CC1`: the “% Inhibition” value is reported as -1% and the Z score stood at 0.15.
Consider `CC1(C)CCCN1C(=O)Nc1cccc(-c2nnc3n2CCC3)c1`, for which the “% Inhibition” value is on record as -2% and the Z score is 0.36.
Take `CCn1cc(CN(Cc2ccc(CC3CCN(C)CC3)cc2)C2CC2)c(C)n1`: the “% Inhibition” value turned out to be 5% and the Z score is on record as -0.89.
As for `CCOc1ccccc1C(=O)NC[C@@H]1CN(C)C(=O)[C@H](c2ccccc2)N1C`, the “% Inhibition” value was -9% and the Z score is given as 1.26.
The corresponding values for `Cn1ncc2ccc(-c3noc(C(=O)Nc4ccccc4)n3)cc21` are -2% and 0.43.
`O=C(O)CCN(CCc1ccccc1)Cc1cc2ccccc2o1`: the “% Inhibition” value was -5% and the Z score was determined as 0.77.
Take `Cc1cnn(CCNCc2cccc3nccn23)c1`: the “% Inhibition” value was -18% and the Z score is reported as 1.6.
For the molecule `Cc1ccc(S(=O)(=O)N2C[C@@H]3CC[C@H]2CN(C)C3)cc1F`, the “% Inhibition” value is given as -16% and the Z score was found to be 1.53.
For `CN(C)S(=O)(=O)N1C[C@H]2CC[C@@H](C1)N(Cc1nccs1)C2` the same measures were -1% and 0.13.
Consider `Cc1cc(=O)[nH]c(NCCNC(=O)c2cc(C(C)C)oc2C)n1`, for which the “% Inhibition” value was -13% and the Z score is given as 2.6.
`CC(C)NC(=O)[C@H]1O[C@H](CCN2CCN(c3ccccc3)CC2)CC[C@@H]1O`: the “% Inhibition” value is listed as -5% and the Z score is on record as 0.63.
For `CCn1nc(C)c(CN2CCC(CCOC)(c3noc(-c4cccnc4)n3)CC2)c1C`, the “% Inhibition” value was -9% and the Z score worked out at 1.15.
